Experimental data reported in the supplement of paper PMC6531468.
The other results are listed elsewhere or left out. These are enrichments in a pooled selection; single values are uncertain. Each score is taken over the longer molecules that contain the sequence shown.

target: IMP3 full-length (UniProt O00425); experiment: 6-mer SELEX enrichment z-score vs GST control; IMP3 is the RNA-binding protein IGF2BP3; higher = more enriched by binding; conditions: construct: FL IMP3 (1-579); SELEX round: R4
Description: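 SELEX-seq with GST-tagged full-length IMP3 and an N40 RNA pool, round 4. Each 6-mer is scored as an enrichment z-score of sequence tags containing it, normalised to the matching GST SELEX round. RNA written as DNA (T = U).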

Chain of UniProt O00425 (O00425 whole entry): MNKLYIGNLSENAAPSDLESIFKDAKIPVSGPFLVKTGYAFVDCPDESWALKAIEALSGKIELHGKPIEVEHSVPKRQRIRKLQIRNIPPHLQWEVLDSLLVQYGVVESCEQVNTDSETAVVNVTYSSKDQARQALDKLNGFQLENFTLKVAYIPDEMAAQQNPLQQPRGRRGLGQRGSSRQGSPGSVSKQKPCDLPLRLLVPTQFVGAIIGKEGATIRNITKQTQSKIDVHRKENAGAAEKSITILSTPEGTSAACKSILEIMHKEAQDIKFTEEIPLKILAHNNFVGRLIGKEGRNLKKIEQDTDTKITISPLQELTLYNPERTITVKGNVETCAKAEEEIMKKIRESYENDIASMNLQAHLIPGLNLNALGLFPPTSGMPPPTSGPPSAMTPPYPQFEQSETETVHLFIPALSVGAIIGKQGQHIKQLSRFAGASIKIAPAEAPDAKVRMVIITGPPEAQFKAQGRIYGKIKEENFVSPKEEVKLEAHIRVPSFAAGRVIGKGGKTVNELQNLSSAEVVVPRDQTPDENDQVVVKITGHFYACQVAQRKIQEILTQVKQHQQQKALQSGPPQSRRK

How did the “6-mer SELEX enrichment z-score” value turn out when ATGACT was run?
The value was -0.38.

How did the “6-mer SELEX enrichment z-score” value turn out when TAAGGA was run?
The value was -0.257.

Which “6-mer SELEX enrichment z-score” value does the source give for CAATAC here?
The value was 1.14.

How did the “6-mer SELEX enrichment z-score” value turn out when TACGGA was run?
Its value is -0.144.

CACAAC was tested. Which “6-mer SELEX enrichment z-score” value did it give?
The value was 2.1.

GATAAC was tested. Which “6-mer SELEX enrichment z-score” value did it give?
The value was -0.355.

How did the “6-mer SELEX enrichment z-score” value turn out when CGTCGT was run?
Its value is 0.08.

For GGAGGC, which “6-mer SELEX enrichment z-score” value is on record?
Its value is 0.858.

Which “6-mer SELEX enrichment z-score” value does the source give for GCGTGC here?
Its value is 0.124.

Which “6-mer SELEX enrichment z-score” value does the source give for ATAAAG here?
Its value is -0.242.

With GGAGTG as the sequence, how does the “6-mer SELEX enrichment z-score” value read?
Its value is -0.005.

Which “6-mer SELEX enrichment z-score” value does the source give for GTTACT here?
Its value is -0.151.

For TTCGCC, which “6-mer SELEX enrichment z-score” value is on record?
The value was -0.124.

Which “6-mer SELEX enrichment z-score” value does the source give for TCCCCC here?
The value was -0.563.

TTTGCT was tested. Which “6-mer SELEX enrichment z-score” value did it give?
The value was 0.067.

GGAACC was tested. Which “6-mer SELEX enrichment z-score” value did it give?
The value was -0.788.

CGCTGG was tested. Which “6-mer SELEX enrichment z-score” value did it give?
Its value is 0.23.

TGCCTA was tested. Which “6-mer SELEX enrichment z-score” value did it give?
Its value is -0.697.

How did the “6-mer SELEX enrichment z-score” value turn out when GCATAG was run?
Its value is 0.36.

Which “6-mer SELEX enrichment z-score” value does the source give for GACACC here?
Its value is -0.629.

Which “6-mer SELEX enrichment z-score” value does the source give for TTTACG here?
Its value is 0.002.

Which “6-mer SELEX enrichment z-score” value does the source give for AAGGAT here?
The value was -0.14.

GAGAAC was tested. Which “6-mer SELEX enrichment z-score” value did it give?
Its value is -0.741.

With AAGGTT as the sequence, how does the “6-mer SELEX enrichment z-score” value read?
Its value is -0.216.

Which “6-mer SELEX enrichment z-score” value does the source give for TAGGTC here?
The value was 0.354.

Which “6-mer SELEX enrichment z-score” value does the source give for CCAATA here?
Its value is -0.382.

With AGAAAG as the sequence, how does the “6-mer SELEX enrichment z-score” value read?
The value was -0.741.

How did the “6-mer SELEX enrichment z-score” value turn out when ATCAAC was run?
Its value is 1.69.

Which “6-mer SELEX enrichment z-score” value does the source give for TCATTT here?
The value was 1.28.

Which “6-mer SELEX enrichment z-score” value does the source give for CTCATC here?
The value was 0.833.

For TGCTCA, which “6-mer SELEX enrichment z-score” value is on record?
The value was 0.092.

With CTAGTA as the sequence, how does the “6-mer SELEX enrichment z-score” value read?
The value was -0.235.

How did the “6-mer SELEX enrichment z-score” value turn out when ATAGAG was run?
The value was 0.055.

How did the “6-mer SELEX enrichment z-score” value turn out when GCTTCT was run?
Its value is 0.178.

Which “6-mer SELEX enrichment z-score” value does the source give for TTATCT here?
The value was 0.118.

AGGCTC was tested. Which “6-mer SELEX enrichment z-score” value did it give?
Its value is 0.461.

How did the “6-mer SELEX enrichment z-score” value turn out when GATAAG was run?
The value was -0.351.

TAAAGT was tested. Which “6-mer SELEX enrichment z-score” value did it give?
The value was -0.416.

TGTCGG was tested. Which “6-mer SELEX enrichment z-score” value did it give?
The value was 1.33.

Which “6-mer SELEX enrichment z-score” value does the source give for ACGCCC here?
Its value is -0.94.

system: IMP3 KH1-2; experiment: as above; conditions: construct: KH1-2 (164-376); SELEX round: R4
Description: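 SELEX-seq with GST-tagged IMP3 KH1-2 (Pro164-Phe376) and an N40 RNA pool, round 4 (stringent 300/600 mM KCl washes). 6-mer z-score of sequence-tag enrichment normalised to the corresponding GST SELEX round; RNA k-mers written as DNA (T for U).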

Chain of IMP3 KH1-2 (chain, as listed by the source): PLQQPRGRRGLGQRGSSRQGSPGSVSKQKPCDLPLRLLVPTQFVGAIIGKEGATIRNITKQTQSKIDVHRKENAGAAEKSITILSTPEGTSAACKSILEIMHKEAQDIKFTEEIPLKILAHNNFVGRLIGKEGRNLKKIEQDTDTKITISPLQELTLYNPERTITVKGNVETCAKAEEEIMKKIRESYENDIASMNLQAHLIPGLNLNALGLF

ATGACT was tested. Which “6-mer SELEX enrichment z-score” value did it give?
The value was 0.473.

How did the “6-mer SELEX enrichment z-score” value turn out when TAAGGA was run?
The value was 0.444.

CAATAC was tested. Which “6-mer SELEX enrichment z-score” value did it give?
Its value is 1.26.

For TACGGA, which “6-mer SELEX enrichment z-score” value is on record?
The value was 0.092.

Which “6-mer SELEX enrichment z-score” value does the source give for CACAAC here?
The value was 1.56.

For GATAAC, which “6-mer SELEX enrichment z-score” value is on record?
Its value is 0.564.

Which “6-mer SELEX enrichment z-score” value does the source give for CGTCGT here?
The value was -0.398.

GGAGGC was tested. Which “6-mer SELEX enrichment z-score” value did it give?
Its value is 0.844.

With GCGTGC as the sequence, how does the “6-mer SELEX enrichment z-score” value read?
Its value is -0.615.

How did the “6-mer SELEX enrichment z-score” value turn out when ATAAAG was run?
The value was 0.645.

GGAGTG was tested. Which “6-mer SELEX enrichment z-score” value did it give?
The value was 0.186.

GTTACT was tested. Which “6-mer SELEX enrichment z-score” value did it give?
Its value is -0.009.

With TTCGCC as the sequence, how does the “6-mer SELEX enrichment z-score” value read?
The value was 0.052.

TCCCCC was tested. Which “6-mer SELEX enrichment z-score” value did it give?
The value was 1.01.

How did the “6-mer SELEX enrichment z-score” value turn out when TTTGCT was run?
The value was 0.408.

With GGAACC as the sequence, how does the “6-mer SELEX enrichment z-score” value read?
The value was -1.21.

With CGCTGG as the sequence, how does the “6-mer SELEX enrichment z-score” value read?
The value was -0.006.

With TGCCTA as the sequence, how does the “6-mer SELEX enrichment z-score” value read?
Its value is -0.648.

With GCATAG as the sequence, how does the “6-mer SELEX enrichment z-score” value read?
Its value is -0.278.

With GACACC as the sequence, how does the “6-mer SELEX enrichment z-score” value read?
The value was -0.974.

How did the “6-mer SELEX enrichment z-score” value turn out when TTTACG was run?
The value was 0.358.

AAGGAT was tested. Which “6-mer SELEX enrichment z-score” value did it give?
The value was 0.531.

How did the “6-mer SELEX enrichment z-score” value turn out when GAGAAC was run?
Its value is -0.31.

AAGGTT was tested. Which “6-mer SELEX enrichment z-score” value did it give?
The value was -0.17.

With TAGGTC as the sequence, how does the “6-mer SELEX enrichment z-score” value read?
Its value is 0.2.

Which “6-mer SELEX enrichment z-score” value does the source give for CCAATA here?
Its value is 0.332.

Which “6-mer SELEX enrichment z-score” value does the source give for AGAAAG here?
Its value is -0.047.

For ATCAAC, which “6-mer SELEX enrichment z-score” value is on record?
Its value is 0.582.

Which “6-mer SELEX enrichment z-score” value does the source give for TCATTT here?
The value was 1.29.

How did the “6-mer SELEX enrichment z-score” value turn out when CTCATC was run?
Its value is 0.242.

With CTAGTA as the sequence, how does the “6-mer SELEX enrichment z-score” value read?
Its value is -0.151.

For ATAGAG, which “6-mer SELEX enrichment z-score” value is on record?
The value was 0.272.

How did the “6-mer SELEX enrichment z-score” value turn out when GCTTCT was run?
Its value is 0.034.

AGGCTC was tested. Which “6-mer SELEX enrichment z-score” value did it give?
Its value is 0.022.

GATAAG was tested. Which “6-mer SELEX enrichment z-score” value did it give?
Its value is 0.381.

With TAAAGT as the sequence, how does the “6-mer SELEX enrichment z-score” value read?
The value was -0.036.

For TGTCGG, which “6-mer SELEX enrichment z-score” value is on record?
Its value is 0.653.

For ACGCCC, which “6-mer SELEX enrichment z-score” value is on record?
The value was -0.641.

system: IMP3 KH3-4; experiment: as above; conditions: construct: KH3-4 (377-579); SELEX round: R4
Description: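 SELEX-seq with GST-tagged IMP3 KH3-4 (Pro377-Lys579) and an N40 RNA pool, round 4. 6-mer z-score of sequence-tag enrichment normalised to the corresponding GST SELEX round; RNA k-mers written as DNA (T for U).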

Chain of IMP3 KH3-4 (chain, as listed by the source): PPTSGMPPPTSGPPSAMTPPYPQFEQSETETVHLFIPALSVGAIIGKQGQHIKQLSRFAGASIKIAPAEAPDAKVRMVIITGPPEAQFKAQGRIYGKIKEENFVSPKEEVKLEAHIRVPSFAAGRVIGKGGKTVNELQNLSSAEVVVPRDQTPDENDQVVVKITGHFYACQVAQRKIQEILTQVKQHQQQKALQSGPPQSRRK

With ATGACT as the sequence, how does the “6-mer SELEX enrichment z-score” value read?
Its value is 0.716.

How did the “6-mer SELEX enrichment z-score” value turn out when TAAGGA was run?
Its value is 1.06.

With CAATAC as the sequence, how does the “6-mer SELEX enrichment z-score” value read?
Its value is 0.606.

Which “6-mer SELEX enrichment z-score” value does the source give for TACGGA here?
The value was 0.382.

With CACAAC as the sequence, how does the “6-mer SELEX enrichment z-score” value read?
Its value is -0.139.

GATAAC was tested. Which “6-mer SELEX enrichment z-score” value did it give?
Its value is 0.958.

With CGTCGT as the sequence, how does the “6-mer SELEX enrichment z-score” value read?
The value was -0.264.

Which “6-mer SELEX enrichment z-score” value does the source give for GGAGGC here?
Its value is 0.66.

Which “6-mer SELEX enrichment z-score” value does the source give for GCGTGC here?
Its value is -0.564.

ATAAAG was tested. Which “6-mer SELEX enrichment z-score” value did it give?
The value was 1.61.

For GGAGTG, which “6-mer SELEX enrichment z-score” value is on record?
Its value is 0.187.

How did the “6-mer SELEX enrichment z-score” value turn out when GTTACT was run?
The value was 0.032.

How did the “6-mer SELEX enrichment z-score” value turn out when TTCGCC was run?
The value was -0.32.

Which “6-mer SELEX enrichment z-score” value does the source give for TCCCCC here?
The value was -0.667.

With TTTGCT as the sequence, how does the “6-mer SELEX enrichment z-score” value read?
Its value is 0.485.

Which “6-mer SELEX enrichment z-score” value does the source give for GGAACC here?
Its value is -1.46.

Which “6-mer SELEX enrichment z-score” value does the source give for CGCTGG here?
The value was -0.163.

TGCCTA was tested. Which “6-mer SELEX enrichment z-score” value did it give?
The value was -0.671.

How did the “6-mer SELEX enrichment z-score” value turn out when GCATAG was run?
The value was -0.083.

With GACACC as the sequence, how does the “6-mer SELEX enrichment z-score” value read?
Its value is -1.54.

With TTTACG as the sequence, how does the “6-mer SELEX enrichment z-score” value read?
Its value is 0.637.

With AAGGAT as the sequence, how does the “6-mer SELEX enrichment z-score” value read?
Its value is 1.25.

Which “6-mer SELEX enrichment z-score” value does the source give for GAGAAC here?
The value was -0.217.

For AAGGTT, which “6-mer SELEX enrichment z-score” value is on record?
The value was 0.162.

With TAGGTC as the sequence, how does the “6-mer SELEX enrichment z-score” value read?
The value was 0.337.

With CCAATA as the sequence, how does the “6-mer SELEX enrichment z-score” value read?
The value was 0.1.

For AGAAAG, which “6-mer SELEX enrichment z-score” value is on record?
Its value is 0.7.

With ATCAAC as the sequence, how does the “6-mer SELEX enrichment z-score” value read?
Its value is 0.197.

How did the “6-mer SELEX enrichment z-score” value turn out when TCATTT was run?
Its value is 1.34.

How did the “6-mer SELEX enrichment z-score” value turn out when CTCATC was run?
Its value is -0.224.

Which “6-mer SELEX enrichment z-score” value does the source give for TGCTCA here?
Its value is -0.257.

How did the “6-mer SELEX enrichment z-score” value turn out when CTAGTA was run?
Its value is 0.027.

For ATAGAG, which “6-mer SELEX enrichment z-score” value is on record?
Its value is 0.869.

GCTTCT was tested. Which “6-mer SELEX enrichment z-score” value did it give?
Its value is 0.032.

How did the “6-mer SELEX enrichment z-score” value turn out when TTATCT was run?
The value was 0.531.

How did the “6-mer SELEX enrichment z-score” value turn out when AGGCTC was run?
Its value is 0.05.

For GATAAG, which “6-mer SELEX enrichment z-score” value is on record?
The value was 1.03.

How did the “6-mer SELEX enrichment z-score” value turn out when TAAAGT was run?
Its value is 0.489.

How did the “6-mer SELEX enrichment z-score” value turn out when TGTCGG was run?
The value was 0.744.

ACGCCC was tested. Which “6-mer SELEX enrichment z-score” value did it give?
The value was -1.61.
